Changes are numbered by the printed parent chain. Names and notes keep the numbering of the source. ± gives the standard deviation of the averaged measurements. Laboratory Escherichia coli strains with one amino-acid change in an essential protein, pooled on minimal glucose agar with carbenicillin or gentamicin at twice the control MIC (plus kanamycin and chloramphenicol for the plasmids), 48 h. Fold change of barcode share against drug-free plates; higher = less susceptible. Active = above 20 in both replicates (the paper's putatively resistant). '<' = one read or none on drug, '>' = one read or none on a drug-free plate. Shares are relative, so most strains fall below 1 when a few take over. Listed are strains with at least 15 reads on both drug-free plates, and hits; most hits rest on fewer reference reads. Replicate rank correlation about 0.5. Edits are read from barcodes.
B1: metB V210D (protein)
chain: MTRKQATIAVRSGLNDDEQYGCVVPPIHLSSTYNFTGFNEPRAHDYSRRGNPTRDVVQRALAELEGGAGAVLTNTGMSAIHLVTTVFLKPGDLLVAPHDCYGGSYRLFDSLAKRGCYRVLFVDQGDEQALRAALAEKPKLVLVESPSNPLLRVVDIAKICHLAREVGAVSVVDNTFLSPALQNPLALGADLVLHSCTKYLNGHSDVVAGDVIAKDPDVVTELAWWANNIGVTGGAFDSYLLLRGLRTLVPRMELAQRNAQAIVKYLQTQPLVKKLYHPSLPENQGHEIAARQQKGFGAMLSFELDGDEQTLRRFLGGLSLFTLAESLGGVESLISHAATMTHAGMAPEARAAAGISETLLRISTGIEDGEDLIADLENGFRAANKG
B2: metB V210P (protein)
chain: B1 chain with D210P
B3: metE V127A (protein)
chain: MTILNHTLGFPRVGLRRELKKAQESYWAGNSTREELLAVGRELRARHWDQQKQAGIDLLPVGDFAWYDHVLTTSLLLGNVPARHQNKDGSVDIDTLFRIGRGRAPTGEPAAAAEMTKWFNTNYHYMAPEFVKGQQFKLTWTQLLDEVDEALALGHKVKPVLLGPVTWLWLGKVKGEQFDRLSLLNDILPVYQQVLAELAKRGIEWVQIDEPALVLELPQAWLDAYKPAYDALQGQVKLLLTTYFEGVTPNLDTITALPVQGLHVDLVHGKDDVAELHKRLPSDWLLSAGLINGRNVWRADLTEKYAQIKDIVGKRDLWVASSCSLLHSPIDLSVETRLDAEVKSWFAFALQKCHELALLRDALNSGDTAALAEWSAPIQARRHSTRVHNPAVEKRLAAITAQDSQRANVYEVRAEAQRARFKLPAWPTTTIGSFPQTTEIRTLRLDFKKGNLDANNYRTGIAEHIKQAIVEQERLGLDVLVHGEAERNDMVEYFGEHLDGFVFTQNGWVQSYGSRCVKPPIVIGDISRPAPITVEWAKYAQSLTDKPVKGMLTGPVTILCWSFPREDVSRETIAKQIALALRDEVADLEAAGIGIIQIDEPALREGLPLRRSDWDAYLQWGVEAFRINAAVAKDDTQIHTHMCYCEFNDIMDSIAALDADVITIETSRSDMELLESFEEFDYPNEIGPGVYDIHSPNVPSVEWIEALLKKAAKRIPAERLWVNPDCGLKTRGWPETRAALANMVQAAQNLRRG
B4: metE L239W (protein)
chain: B3 chain with A127V, L239W
B5: metE L239A (protein)
chain: B3 chain with A127V, L239A
B6: metE V127Q (protein)
chain: B3 chain with A127Q
B7: metE I662A (protein)
chain: B3 chain with A127V, I662A
B8: metE L239Q (protein)
chain: B3 chain with A127V, L239Q

target: Escherichia coli (laboratory strain); assay: barcode share on antibiotic plates over drug-free plates; higher = less susceptible; settings: antibiotic: carbenicillin; 2× MIC (3.1 µg/mL)
Description: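 A pool of E. coli strains, each edited to carry one amino-acid change in an essential protein, was grown for 48 h on minimal glucose agar with or without antibiotic; strain barcodes were sequenced; mean of two replicates.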

Protein | fold change of barcode share
B1 | 0.22 ± 0.076
B2 | 0.298 ± 0.094
B3 | 0.518 ± 0.13
B4 | 0.542 ± 0.38
B5 | 0.399 ± 0.26
B6 | 1.09 ± 0.19
B7 | 0.666 ± 0.094
B8 | 0.968 ± 0.77

same assay, conditions: antibiotic: gentamicin; 2× MIC (MIC 0.45 µg/mL)

Protein | fold change of barcode share
B1 | < 0.00535
B2 | < 0.00548
B3 | < 0.0082
B4 | 0.0142 ± 0.011
B5 | 0.0161 ± 0.013
B8 | < 0.00781
